The record followed here is PMC4336329 (PLoS ONE, 2015).

The whole screen tested about 310,000 compounds, of which about 14,000 (4.5%) showed an effect of 50% or more. Effects have a minus sign here. The list shows a part of the results.
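Note: peak tail current of the secondary pulse compared with the same well before compound.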

Sequence of human ether-à-go-go-related gene (hERG) potassium channel (Q12809 whole entry, looked up): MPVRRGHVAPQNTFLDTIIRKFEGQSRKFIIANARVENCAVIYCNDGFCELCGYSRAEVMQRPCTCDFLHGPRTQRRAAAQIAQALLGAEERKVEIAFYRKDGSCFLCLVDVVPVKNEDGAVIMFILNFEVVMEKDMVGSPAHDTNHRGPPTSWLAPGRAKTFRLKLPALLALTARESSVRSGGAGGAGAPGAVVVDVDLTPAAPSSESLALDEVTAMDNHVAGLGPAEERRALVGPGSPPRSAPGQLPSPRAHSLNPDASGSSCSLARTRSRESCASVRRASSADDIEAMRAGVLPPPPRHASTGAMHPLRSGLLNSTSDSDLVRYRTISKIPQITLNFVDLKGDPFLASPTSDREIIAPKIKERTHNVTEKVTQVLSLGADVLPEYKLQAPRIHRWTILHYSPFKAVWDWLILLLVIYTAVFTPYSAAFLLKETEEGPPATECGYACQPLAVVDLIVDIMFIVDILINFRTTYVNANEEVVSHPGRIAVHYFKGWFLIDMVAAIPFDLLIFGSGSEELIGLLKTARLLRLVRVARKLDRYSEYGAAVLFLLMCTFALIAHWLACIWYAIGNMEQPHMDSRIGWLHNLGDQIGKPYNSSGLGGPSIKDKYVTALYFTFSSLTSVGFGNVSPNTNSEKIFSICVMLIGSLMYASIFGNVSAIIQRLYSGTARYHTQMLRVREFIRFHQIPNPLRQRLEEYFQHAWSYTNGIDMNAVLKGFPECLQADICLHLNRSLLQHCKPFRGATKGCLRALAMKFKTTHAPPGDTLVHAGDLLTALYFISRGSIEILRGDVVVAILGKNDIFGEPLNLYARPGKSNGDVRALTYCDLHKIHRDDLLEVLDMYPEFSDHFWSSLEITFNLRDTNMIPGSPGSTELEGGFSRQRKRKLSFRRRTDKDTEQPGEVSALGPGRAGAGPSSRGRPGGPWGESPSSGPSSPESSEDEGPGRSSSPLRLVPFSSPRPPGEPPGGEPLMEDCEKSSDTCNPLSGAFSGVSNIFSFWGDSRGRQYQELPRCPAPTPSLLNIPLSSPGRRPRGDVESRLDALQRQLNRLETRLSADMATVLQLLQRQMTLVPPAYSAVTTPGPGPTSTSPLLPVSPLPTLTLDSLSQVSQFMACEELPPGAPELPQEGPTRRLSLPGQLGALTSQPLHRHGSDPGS

This assay addresses human ether-à-go-go-related gene (hERG) potassium channel (human, UniProt Q12809). Description: primary screen, population patch clamp on CHO cells stably expressing hERG.
With `O=C(c1cc2ccccc2[nH]1)N(Cc1cccnc1)CC1CCCN(C2CCCCC2)C1` (stereo not drawn), the “hERG current change (%, negative = inhibition) at 10uM” value is -73.7%.
`CCOC(=O)C(/C=C(\C#N)C(=O)OCC)=C(/N)N1CCN(c2c(C)cccc2C)CC1`: the “hERG current change (%, negative = inhibition) at 10uM” value was found to be 10.5%.
As for `O=C(Nc1cccc(O)c1)c1ccc(C(F)(F)F)cc1`, the figure is 11.5%.
Next, `CCOC(=O)Cc1csc(NC(=O)CCCCCN2C(=O)c3cccc4cccc(c34)C2=O)n1`: 7.04%.
As for `COc1ccc(N(CCOc2ccccc2)S(=O)(=O)c2ccccc2)cc1`, the figure is -4.39%.
With `Cn1c(=NC(=O)C(C)(C)C)sc2cccc(F)c21`, the “hERG current change (%, negative = inhibition) at 10uM” value was found to be 4.8%.
Regarding `COc1ccccc1NC(=O)c1ccccc1NS(=O)(=O)c1cccs1`, the “hERG current change (%, negative = inhibition) at 10uM” value is listed as 10.8%.
Next, `CCn1cc(CN2CCC(n3nccc3NC(=O)c3ccc4c(c3)OCO4)CC2)c(C)n1`: 7.01%.
Next, `Cc1cccnc1NC(=O)CCCNC(=O)c1ccc(Cl)cc1`: -10.3%.
As for `COc1ccc(CCC(=O)NC2CCCCC2)cc1`, the figure is -29.9%; as for `CN(C)S(=O)(=O)c1ccc(NC(=O)CN2CCN(C(c3ccccc3)c3ccccc3)CC2)cc1`, 12%; as for `Cc1ccccc1NS(=O)(=O)c1ccc(C(=O)N2CCN(c3ccccn3)CC2)cc1`, -19.7%.
Consider `COc1ccc(/C=C/C(=O)c2ccc(NC3=NCCCS3)cc2)cc1OC`, for which the “hERG current change (%, negative = inhibition) at 10uM” value is given as -37.7%.
Next, `COc1ccc(S(=O)(=O)NNc2nc(C)cc(C)n2)cc1Br`: 2.02%; `Cl.O=[N+]([O-])c1cc(Cl)cc(C2=NCCN2)c1`: -18.8%; `c1csc(-c2ncc3ccccn23)c1`: -2.73%.
Next, `O=C(Nc1ccnn1C1CCN(Cc2cc(Cl)ccc2O)CC1)c1cccnc1`: -9.31%; `O=C(CSc1nnc(NC(=O)c2c(F)cccc2Cl)s1)Nc1ccccc1F`: 6.5%; `Cc1c(Cl)cccc1NC(=O)CCN1CCN(C)CC1`: 2.09%.
As for `COc1ccc(Cl)cc1NS(=O)(=O)c1c(C)nc2sccn2c1=O`, the figure is -0.862%; as for `CN(c1ccccc1C(=O)N1CCc2ccccc2C1)S(C)(=O)=O`, -7.88%.
Take `CS(=O)(=O)NN1C(=O)c2ccccc2NC12CCCC2`: the “hERG current change (%, negative = inhibition) at 10uM” value was 10.2%.
Turning to `Cc1ccc(CNC(=O)C2CC(c3cccc([N+](=O)[O-])c3)=NO2)o1` (stereo not drawn), the “hERG current change (%, negative = inhibition) at 10uM” value is listed as -16.3%.
Next, `NNC(=O)c1oc2nc(-c3ccccc3)cc(-c3ccccc3)c2c1N`: 17.8%; `CC(C)CN1CCN(Cc2ccc(F)cc2Cl)CC1CCO` (stereo not drawn): -34.4%; `CCOC(=O)C(CC)Sc1nc2c(c(=O)[nH]c(=O)n2C)n1C/C=C(/C)Cl` (stereo not drawn): -82%.
Next, `CCc1ccc(C(=O)C(C)OC(=O)Cn2[nH]c(=O)c3ccccc3c2=O)cc1` (stereo not drawn): 10.8%; `O=C(COC(=O)c1cc(S(=O)(=O)N2CCOCC2)c(Cl)cc1Cl)c1ccc[nH]1`: 11.5%; `COc1cc(Cl)ccc1NC(=S)N(CCN(C)C)C(C)c1ccncc1` (stereo not drawn): -39.2%.
Turning to `CCN(CC)CCN1C(=O)C2C(C(=O)Nc3cccc(C)c3)C3C=CC2(O3)C1C(=O)NC1CCCC(C)C1C` (stereo not drawn), the “hERG current change (%, negative = inhibition) at 10uM” value is recorded as -21.6%.
Next, `Cc1cccc(OCC(O)CN2CCN(C3CCCCC3)CC2)c1.Cl` (stereo not drawn): -50.3%; `COc1ccnc(Oc2ccc(F)cc2)c1-c1ncn[nH]1`: 24.3%.
As for `NC(=O)CN1CCOCCN(CC(N)=O)CCOCC1`, the figure is 18.1%.
As for `CCOc1ccc(N=Cc2c(O)n(-c3ccc(C)c(C)c3)c(=O)[nH]c2=O)cc1`, the figure is -1.8%; as for `Cc1ccc(C)c(N(CC(=O)NCc2ccco2)C(=O)CCC(=O)Nc2nccs2)c1`, 1.35%.
For `NC[C@@H]1O[C@H](O[C@H]2[C@@H](O)[C@H](O[C@@H]3[C@@H](O)[C@H](N)C[C@H](N)[C@H]3O[C@H]3O[C@H](CO)[C@@H](O)[C@H](O)[C@H]3N)O[C@@H]2CO)[C@H](N)[C@@H](O)[C@@H]1O.O=S(=O)(O)O`, the “hERG current change (%, negative = inhibition) at 10uM” value is listed as 22.9%.
On to `COC(=O)NNC(=O)c1ccc(C(C)(C)C)cc1`, for which the “hERG current change (%, negative = inhibition) at 10uM” value is on record as 19.4%.
Next, `O=C(NNC(=O)c1ccccc1Br)c1ccccc1Cl`: 17.8%; `COc1ccccc1NC(=O)Nc1ccnn1C1CCCCC1`: -12.7%.
As for `CCC(=O)c1ccc(OCC(O)CNC2CCCC2)cc1` (stereo not drawn), the figure is 2.52%; as for `COc1cc(C(=O)N2CCN(C(=O)C3CC3)CC2)cc(OC)c1OC`, 3.78%.
Turning to `Cc1ccc2cc(C(c3nnnn3C(C)(C)C)N3CCCCCC3)c(=O)[nH]c2c1` (stereo not drawn), the “hERG current change (%, negative = inhibition) at 10uM” value was -7.34%.
Next, `CCOc1ccc2c(C)nc(NC3=NC(C)(C)C=C(C)N3)nc2c1`: -45%.
Turning to `O=C(CN1C(=O)C2C3C=CC(C3)C2C1=O)NCCN1CCCc2ccccc21` (stereo not drawn), the “hERG current change (%, negative = inhibition) at 10uM” value was -2.92%.
As for `CC(C#N)CCC#N` (stereo not drawn), the figure is 21.7%; as for `CCOC(=O)Cc1csc(NC(NC(=O)OCC)(C(=O)OCC)C(F)(F)F)n1` (stereo not drawn), 0.51%; as for `CC(=O)Nc1ccc(S(=O)(=O)N(C)CC(=O)OCC(=O)N2CCCCC2)cc1`, -1.43%.
Next, `CCn1c(CC(=O)Nc2ccccc2)n[nH]c1=S`: 25.4%; `COc1ccc(C(=O)COc2ccc(C)cc2NC(C)=O)cc1`: 7.08%; `Cc1ccc(-c2nnn(CC(=O)Nc3ccccc3N3CCOCC3)n2)cc1`: 3.14%.
Next, `CCCCn1c(=O)c(-[n+]2ccccc2)c([O-])c2ccccc21`: -1.71%.
Consider `CCCCCCSc1cc(-c2nc3cnccn3c2NCc2ccccc2)ccc1OC.O=C(O)C(F)(F)F`, for which the “hERG current change (%, negative = inhibition) at 10uM” value came out at 0.374%.
With `Cc1cccc(C(=O)Nc2ccc(C(=O)/C=C/c3cccs3)cc2)c1`, the “hERG current change (%, negative = inhibition) at 10uM” value was 7.48%.
As for `COC(=O)c1cc(Br)c(=O)n(-c2ccc(OC)cc2)c1`, the figure is -0.31%.
As for `CN(C1CCCCC1)S(=O)(=O)c1cc2c3c(c1)CCN3C(=O)CC2`, the “hERG current change (%, negative = inhibition) at 10uM” value is -16.2%.
As for `O=C(c1ccc(N2CCCCCC2)c([N+](=O)[O-])c1)N1CCC2(CC1)OCCO2`, the “hERG current change (%, negative = inhibition) at 10uM” value is -22%.
As for `COc1ccccc1NC(=S)NCC1CCCO1` (stereo not drawn), the figure is 8.94%; as for `C/C(Cc1ccccc1)=N\NC(=O)CNC(=O)Cc1ccccc1`, 15.2%.
As for `O=c1[nH]c(CS(=O)(=O)c2ccccc2)nc2ccccc12`, the figure is 0.89%.
Next, `CCOC(=O)C1(Cc2cccc(OC)c2)CCCN(C(=O)c2cc(CC(C)C)[nH]n2)C1` (stereo not drawn): -8.21%; `COc1ccc(/C=C2/SC(=O)N(CCC(=O)Nc3ccc(C)cc3)C2=O)cc1OC`: -0.743%; `CCOC(=O)CC(N)c1cccc([N+](=O)[O-])c1.Cl` (stereo not drawn): 2.9%.
With `O=C1c2ccccc2NC(c2ccc(O)cc2)N1c1ccccc1` (stereo not drawn), the “hERG current change (%, negative = inhibition) at 10uM” value is on record as -1.54%.
Next, `COc1ccc(N2C(=O)c3ccc(NC(C)=O)cc3C2=O)cc1`: 20.2%; `Cc1cnc(NC(=O)CSC(=S)N2CCOCC2)s1`: 15.4%; `CNc1sc(C(=O)c2cccs2)c(N)c1-c1nc2ccccc2s1`: 17.7%.
As for `Cc1cccc(-n2ccc(=O)c(C(=O)Nc3ccc(S(=O)(=O)Nc4onc(C)c4C)cc3)n2)c1`, the figure is 8.19%; as for `CC(C)Oc1ccc(CCNC(=O)CC2C(=O)NCCN2C)cc1` (stereo not drawn), 19.5%.
As for `O=C(NNC(=O)c1nn(-c2ccc(F)cc2)ccc1=O)c1ccccc1Cl`, the figure is -5%; as for `O=C(Nn1c(-c2ccc(Cl)cc2)nc2ccccc2c1=O)c1cccnc1Cl`, 5.79%.
On to `COc1ccc(C(=O)C2CCCN(C(=O)Cn3nc(C)cc3C)C2)cc1F` (stereo not drawn), for which the “hERG current change (%, negative = inhibition) at 10uM” value was -17.4%.
Next, `COC(=O)c1sccc1NC(=S)Nc1ccc(F)cc1F`: 10.3%; `Cc1ccc[n+](CC(=O)c2ccc(NC(=O)c3ccccc3)cc2)c1.[Br-]`: 16.8%; `CCC(=O)NCCc1nc2cc(NC(=O)c3ccccc3Cl)ccc2n1C`: 1.55%.
As for `COc1ccccc1Nc1ccc(N)cc1`, the figure is -3.18%; as for `COCCC(=O)N1CCC(Oc2ccc(C(=O)NC3CCOC(C)(C)C3)cc2)CC1` (stereo not drawn), 14.9%; as for `COc1cc(Nc2nc(SCC#N)nc3ccccc23)cc(OC)c1OC`, -32%.
Regarding `COc1ccc(CN(CCCN2CCOCC2)C(=O)Nc2cccc(Cl)c2)cc1OC`, the “hERG current change (%, negative = inhibition) at 10uM” value is -39.3%.
Next, `CCOC(=O)c1sc(NC(=O)CC)c(C#N)c1C`: 6.06%; `O=C(O)CCSc1ncnc2sc(-c3ccccc3)cc12`: -23.6%.
Next, `CCn1c(N2CCN(C(=O)NC3CCCCC3)CC2)nc2ccccc21`: -32.5%; `c1ccc(CSc2ncccn2)cc1`: 5.28%; `CC(C)NCC(O)c1ccc(C2CCCC2)cc1.O=C(O)/C=C\C(=O)O` (stereo not drawn): -15.5%.
As for `CCOC(=O)C1=C(C)N=C2SC(C(=O)OC)=CC(=O)N2C1c1ccc(F)cc1` (stereo not drawn), the figure is 11%.
For the compound `COc1ccc(S(=O)(=O)N2CCC(C(=O)N3CCc4ccccc4C3)CC2)cc1C`, the “hERG current change (%, negative = inhibition) at 10uM” value is recorded as -19.7%.
Next, `O=C(NCC1CCCCC1)C12CN(Cc3ccccc3)CC1C(c1cccc([N+](=O)[O-])c1)=NO2` (stereo not drawn): -21.8%; `CCOC(=O)C(C)/C(C)=N/NC(=O)CCC(=O)Nc1cc(C)ccc1C` (stereo not drawn): 13.5%.
